# Laboratory results reported in the supplement of paper PMC8728848.
# The other results are listed elsewhere or left out.
# What was measured:
# Test in all cases: glycan array binding signal (z-score within array); higher = stronger binding
# Details in all cases: glycan notation: IUPAC condensed, linker removed
# [1] = biological target: GlcNAc(b1-3)Gal(b1-4)GlcNAc(b1-3)Gal(b1-4)GlcNAc(b1-2)Man(a1-3)[GlcNAc(b1-3)Gal(b1-4)GlcNAc(b1-3)Gal(b1-4)GlcNAc(b1-2)Man(a1-6)]Man(b1-4)GlcNAc(b1-4)GlcNAc
# Procedure, shortened: (§1)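 Glycan array binding is given as a within-array Z-score, which can be read as non-binding when negative. The arrays, 3228 of them, came from the Consortium for Functional Glycomics database and were retained only where the protein sequence was available. Z-scores were averaged across arrays of the same protein sequence at different concentrations or buffers and across linkers.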
# [2] = biological target: GlcNAc(b1-3)Gal(b1-4)GlcNAc(b1-3)Gal(b1-4)GlcNAc(b1-2)Man(a1-3)[GlcNAc(b1-3)Gal(b1-4)GlcNAc(b1-3)Gal(b1-4)GlcNAc(b1-2)Man(a1-6)]Man(b1-4)GlcNAc(b1-4)[Fuc(a1-6)]GlcNAc
# Procedure, shortened: as §1
# [3] = biological target: GlcNAc(b1-3)Gal(b1-4)GlcNAc(b1-3)Gal(b1-4)GlcNAc(b1-2)[GlcNAc(b1-3)Gal(b1-4)GlcNAc(b1-3)Gal(b1-4)GlcNAc(b1-6)]Man(a1-6)[GlcNAc(b1-3)Gal(b1-4)GlcNAc(b1-3)Gal(b1-4)GlcNAc(b1-2)Man(a1-3)]Man(b1-4)GlcNAc(b1-4)[Fuc(a1-6)]GlcNAc
# Procedure, shortened: as §1
# [4] = biological target: GlcNAc(b1-3)Gal(b1-4)GlcNAc(b1-3)Gal(b1-4)GlcNAc(b1-3)Gal(b1-4)GlcNAc(b1-2)Man(a1-3)[GlcNAc(b1-3)Gal(b1-4)GlcNAc(b1-3)Gal(b1-4)GlcNAc(b1-3)Gal(b1-4)GlcNAc(b1-2)Man(a1-6)]Man(b1-4)GlcNAc(b1-4)GlcNAc
# Procedure, shortened: as §1
# [5] = biological target: GlcNAc(b1-3)Gal(b1-4)GlcNAc(b1-3)Gal(b1-4)GlcNAc(b1-3)Gal(b1-4)GlcNAc(b1-2)Man(a1-3)[GlcNAc(b1-3)Gal(b1-4)GlcNAc(b1-3)Gal(b1-4)GlcNAc(b1-3)Gal(b1-4)GlcNAc(b1-2)Man(a1-6)]Man(b1-4)GlcNAc(b1-4)[Fuc(a1-6)]GlcNAc
# Procedure, shortened: as §1
# [6] = biological target: GlcNAc(b1-3)Gal(b1-4)GlcNAc(b1-3)Gal(b1-4)GlcNAc(b1-3)Gal(b1-4)GlcNAc(b1-2)[GlcNAc(b1-3)Gal(b1-4)GlcNAc(b1-3)Gal(b1-4)GlcNAc(b1-3)Gal(b1-4)GlcNAc(b1-6)]Man(a1-6)[GlcNAc(b1-3)Gal(b1-4)GlcNAc(b1-3)Gal(b1-4)GlcNAc(b1-3)Gal(b1-4)GlcNAc(b1-2)Man(a1-3)]Man(b1-4)GlcNAc(b1-4)[Fuc(a1-6)]GlcNAc
# Procedure, shortened: as §1
# [7] = biological target: GlcNAc(b1-3)Gal(b1-4)GlcNAc(b1-3)Gal(b1-4)GlcNAc(b1-3)Gal(b1-4)GlcNAc(b1-3)Gal(b1-4)GlcNAc(b1-2)Man(a1-3)[GlcNAc(b1-3)Gal(b1-4)GlcNAc(b1-3)Gal(b1-4)GlcNAc(b1-3)Gal(b1-4)GlcNAc(b1-3)Gal(b1-4)GlcNAc(b1-2)Man(a1-6)]Man(b1-4)GlcNAc(b1-4)GlcNAc
# Procedure, shortened: as §1
# [8] = biological target: GlcNAc(b1-3)Gal(b1-4)GlcNAc(b1-3)Gal(b1-4)GlcNAc(b1-3)Gal(b1-4)GlcNAc(b1-3)Gal(b1-4)GlcNAc(b1-2)Man(a1-3)[GlcNAc(b1-3)Gal(b1-4)GlcNAc(b1-3)Gal(b1-4)GlcNAc(b1-3)Gal(b1-4)GlcNAc(b1-3)Gal(b1-4)GlcNAc(b1-2)Man(a1-6)]Man(b1-4)GlcNAc(b1-4)[Fuc(a1-6)]GlcNAc
# Procedure, shortened: as §1
# [9] = biological target: GlcNAc(b1-3)Gal(b1-4)GlcNAc(b1-3)Gal(b1-4)GlcNAc(b1-3)Gal(b1-4)GlcNAc(b1-3)Gal(b1-4)GlcNAc(b1-2)[GlcNAc(b1-3)Gal(b1-4)GlcNAc(b1-3)Gal(b1-4)GlcNAc(b1-3)Gal(b1-4)GlcNAc(b1-3)Gal(b1-4)GlcNAc(b1-6)]Man(a1-6)[GlcNAc(b1-3)Gal(b1-4)GlcNAc(b1-3)Gal(b1-4)GlcNAc(b1-3)Gal(b1-4)GlcNAc(b1-3)Gal(b1-4)GlcNAc(b1-2)Man(a1-3)]Man(b1-4)GlcNAc(b1-4)[Fuc(a1-6)]GlcNAc
# Procedure, shortened: as §1
# [10] = biological target: GlcNAc(b1-3)Gal(b1-4)GlcNAc(b1-3)Gal(b1-4)GlcNAc(b1-3)GalNAc
# Procedure, shortened: as §1
# [11] = biological target: GlcNAc(b1-3)Gal(b1-4)GlcNAc(b1-3)GalNAc
# Procedure, shortened: as §1
# [12] = biological target: GlcNAc(b1-3)Gal(b1-4)GlcNAc(b1-3)[GlcNAc(b1-3)Gal(b1-4)GlcNAc(b1-3)]GalNAc
# Procedure, shortened: as §1
# [13] = biological target: GlcNAc(b1-3)Gal(b1-4)GlcNAc(b1-6)[Gal(b1-3)]GalNAc
# Procedure, shortened: as §1
# [14] = biological target: GlcNAc(b1-3)Gal(b1-4)GlcNAc(b1-6)[GlcNAc(b1-3)Gal(b1-3)]GalNAc
# Procedure, shortened: as §1
# [15] = biological target: GlcNAc(b1-3)Gal(b1-4)GlcNAc(b1-6)[GlcNAc(b1-3)]Gal(b1-4)GlcNAc
# Procedure, shortened: as §1
# [16] = biological target: GlcNAc(b1-3)GalNAc
# Procedure, shortened: as §1
# [17] = biological target: GlcNAc(b1-3)Man
# Procedure, shortened: as §1
# [18] = biological target: GlcNAc(b1-3)[GlcNAc(b1-4)][GlcNAc(b1-6)]GlcNAc
# Procedure, shortened: as §1
# [19] = biological target: GlcNAc(b1-3)[GlcNAc(b1-6)]Gal(b1-4)GlcNAc
# Procedure, shortened: as §1
# [20] = biological target: GlcNAc(b1-3)[GlcNAc(b1-6)]GalNAc
# Procedure, shortened: as §1
# [21] = biological target: GlcNAc(b1-3)[GlcNAc(b1-6)]GlcNAc(b1-4)GlcNAc
# Procedure, shortened: as §1
# [22] = biological target: GlcNAc(b1-4)Gal(b1-4)GlcNAc
# Procedure, shortened: as §1
# [23] = biological target: GlcNAc(b1-4)GlcNAc
# Procedure, shortened: as §1
# [24] = biological target: GlcNAc(b1-4)GlcNAc(b1-4)GlcNAc
# Procedure, shortened: as §1
# [25] = biological target: GlcNAc(b1-4)GlcNAc(b1-4)GlcNAc(b1-4)GlcNAc(b1-4)GlcNAc
# Procedure, shortened: as §1
# [26] = biological target: GlcNAc(b1-4)GlcNAc(b1-4)GlcNAc(b1-4)GlcNAc(b1-4)GlcNAc(b1-4)GlcNAc
# Procedure, shortened: as §1
# [27] = biological target: GlcNAc(b1-4)[GlcNAc(b1-6)]GalNAc
# Procedure, shortened: as §1
# [28] = biological target: GlcNAc(b1-6)Gal(b1-4)GlcNAc
# Procedure, shortened: as §1
# [29] = biological target: GlcNAc(b1-6)GalNAc
# Procedure, shortened: as §1
# [30] = biological target: GlcNAc6S(b1-3)Gal(b1-4)GlcNAc
# Procedure, shortened: as §1
# [31] = biological target: Kdn(a2-3)Gal(b1-3)GalNAc
# Procedure, shortened: as §1
# [32] = biological target: Kdn(a2-3)Gal(b1-3)GlcNAc
# Procedure, shortened: as §1
# [33] = biological target: Kdn(a2-3)Gal(b1-4)Glc
# Procedure, shortened: as §1
# [34] = biological target: Kdn(a2-3)Gal(b1-4)GlcNAc
# Procedure, shortened: as §1
# [35] = biological target: Kdn(a2-3)Gal(b1-4)[Fuc(a1-3)]GlcNAc
# Procedure, shortened: as §1
# [36] = biological target: Kdn(a2-6)Gal(b1-4)GlcNAc
# Procedure, shortened: as §1
# [37] = biological target: Man(a1-2)Man(a1-2)Man(a1-3)Man
# Procedure, shortened: as §1
# [38] = biological target: Man(a1-2)Man(a1-2)Man(a1-6)[Man(a1-3)]Man
# Procedure, shortened: as §1
# [39] = biological target: Man(a1-2)Man(a1-3)Man
# Procedure, shortened: as §1
# [40] = biological target: Man(a1-2)Man(a1-3)[Man(a1-2)Man(a1-6)]Man
# Procedure, shortened: as §1
# [41] = biological target: Man(a1-2)Man(a1-3)[Man(a1-2)Man(a1-6)]Man(a1-6)[Man(a1-2)Man(a1-2)Man(a1-3)]Man
# Procedure, shortened: as §1
# [42] = biological target: Man(a1-2)Man(a1-3)[Man(a1-2)Man(a1-6)]Man(a1-6)[Man(a1-2)Man(a1-2)Man(a1-3)]Man(b1-4)GlcNAc(b1-4)GlcNAc
# Procedure, shortened: as §1
# [43] = biological target: Man(a1-2)Man(a1-3)[Man(a1-6)]Man(a1-6)[Man(a1-2)Man(a1-3)]Man(b1-4)GlcNAc(b1-4)GlcNAc
# Procedure, shortened: as §1
# [44] = biological target: Man(a1-2)Man(a1-6)[Man(a1-3)]Man(a1-6)[Man(a1-2)Man(a1-2)Man(a1-3)]Man
# Procedure, shortened: as §1
# [45] = biological target: Man(a1-2)Man(a1-6)[Man(a1-3)]Man(a1-6)[Man(a1-2)Man(a1-2)Man(a1-3)]Man(b1-4)GlcNAc(b1-4)GlcNAc
# Procedure, shortened: as §1
binder,measurement,setting,value
"BDCA-2 (Homo sapiens), Q8WTT0 (protein) MVPEEEPQDREKGLWWFQLKVWSMAVVSILLLSVCFTVSSVVPHNFMYSKTVKRLSKLREYQQYHPSLTCVMEGKDIEDWSCCPTPWTSFQSSCYFISTGMQSWTKSQKNCSVMGADLVVINTREEQDFIIQNLKRNSSYFLGLSDPGGRRHWQWVDQTPYNENVTFWHSGEPNNLDERCAIINFRSSEEWGWNDIHCHVPQKSICKMKKIYI",glycan array binding signal (z-score),[1],-0.116
same,glycan array binding signal (z-score),[2],-0.156
same,glycan array binding signal (z-score),[3],-0.14
same,glycan array binding signal (z-score),[4],-0.134
same,glycan array binding signal (z-score),[5],-0.148
same,glycan array binding signal (z-score),[6],-0.166
same,glycan array binding signal (z-score),[7],-0.144
same,glycan array binding signal (z-score),[8],-0.146
same,glycan array binding signal (z-score),[9],-0.121
same,glycan array binding signal (z-score),[10],-0.189
same,glycan array binding signal (z-score),[11],-0.167
same,glycan array binding signal (z-score),[12],-0.168
same,glycan array binding signal (z-score),[13],-0.177
same,glycan array binding signal (z-score),[14],-0.178
same,glycan array binding signal (z-score),[15],-0.173
same,glycan array binding signal (z-score),[16],-0.244
same,glycan array binding signal (z-score),[17],-0.171
same,glycan array binding signal (z-score),[18],-0.171
same,glycan array binding signal (z-score),[19],0.142
same,glycan array binding signal (z-score),[20],-0.234
same,glycan array binding signal (z-score),[21],-0.249
same,glycan array binding signal (z-score),[22],-0.089
same,glycan array binding signal (z-score),[23],-0.172
same,glycan array binding signal (z-score),[24],-0.228
same,glycan array binding signal (z-score),[25],-0.199
same,glycan array binding signal (z-score),[26],-0.251
same,glycan array binding signal (z-score),[27],-0.255
same,glycan array binding signal (z-score),[28],-0.127
same,glycan array binding signal (z-score),[29],-0.196
same,glycan array binding signal (z-score),[30],-0.188
same,glycan array binding signal (z-score),[31],-0.175
same,glycan array binding signal (z-score),[32],-0.15
same,glycan array binding signal (z-score),[33],-0.013
same,glycan array binding signal (z-score),[34],-0.072
same,glycan array binding signal (z-score),[35],-0.147
same,glycan array binding signal (z-score),[36],-0.183
same,glycan array binding signal (z-score),[37],-0.108
same,glycan array binding signal (z-score),[38],-0.183
same,glycan array binding signal (z-score),[39],-0.125
same,glycan array binding signal (z-score),[40],-0.237
same,glycan array binding signal (z-score),[41],-0.174
same,glycan array binding signal (z-score),[42],-0.222
same,glycan array binding signal (z-score),[43],-0.253
same,glycan array binding signal (z-score),[44],-0.168
same,glycan array binding signal (z-score),[45],-0.155
